Laboratory results published in PubChem BioAssay AID588342 (National Center for Advancing Translational Sciences (NCATS), 2011).
The campaign covered roughly 360,000 compounds. About 25,000 (6.9%) were called active. This list was built around the results that the source calls inconclusive (neither active nor inactive); the mix of calls is not that of the screen. Calls follow the shape of the dose curve; as a rule, active = well fitted inhibition curve with a large enough effect; inconclusive = small, poorly fitted or top-dose-only effect; inactive = flat fitted curve, though single readings scatter. Potencies of inconclusive entries are doubtful fits and often do not repeat.

target: Luciferin 4-monooxygenase (Photinus pyralis) (UniProt P08659); assay: qHTS profiling assay for firefly luciferase inhibitor/activator using purifed enzyme and Km concentrations of substrates (counterscreen for miR-21 project); conditions: purified FLuc, luminescence inhibition; activity change, negative = inhibition: at 57.5 µM (top of the series); also: nearly all actives have a fitted effect of over 55% in size;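 as to activity change, negative = inhibition: plate controls were vehicle for no effect and reference inhibitor for full effect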
Summary of the method: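 Purified P. pyralis luciferase, 10 nM final, with Km-level 10 uM D-luciferin and 10 uM ATP in 50 mM Tris acetate pH 7.5, 10 mM Mg acetate, 0.01% Tween-20, 0.05% BSA; 6-point qHTS titration about 60 µM downward; luminescence read.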
Potency is read from the fitted curve at half-maximal effect; tags tell the direction and shape of the fitted curve.

UniProt P08659, sequence (P08659 whole entry, looked up): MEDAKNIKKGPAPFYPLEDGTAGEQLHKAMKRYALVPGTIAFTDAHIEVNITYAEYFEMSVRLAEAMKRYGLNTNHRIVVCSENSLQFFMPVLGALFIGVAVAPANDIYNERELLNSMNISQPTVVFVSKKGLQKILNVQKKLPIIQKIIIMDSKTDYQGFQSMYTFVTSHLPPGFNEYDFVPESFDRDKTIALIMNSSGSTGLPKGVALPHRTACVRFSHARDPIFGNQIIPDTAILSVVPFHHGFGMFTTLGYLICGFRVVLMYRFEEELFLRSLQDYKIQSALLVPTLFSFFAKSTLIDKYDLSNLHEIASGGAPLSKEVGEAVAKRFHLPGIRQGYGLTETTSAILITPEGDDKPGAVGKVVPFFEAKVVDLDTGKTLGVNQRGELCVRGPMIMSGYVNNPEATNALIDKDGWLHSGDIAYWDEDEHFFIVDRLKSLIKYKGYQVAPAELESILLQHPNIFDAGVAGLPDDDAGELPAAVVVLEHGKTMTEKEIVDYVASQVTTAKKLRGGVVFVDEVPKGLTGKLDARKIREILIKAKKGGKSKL

SMILES | Potency | activity change, negative = inhibition
N/C(=N\OC(=O)Cc1cccc2ccccc12)c1ccccn1 | inconclusive: 26.9 µM [inhibitor, partial curve] | –
O=C(O)c1cccc(NC(=S)NC(=O)c2ccc3ccccc3c2)c1 | active: 1.35 µM | –
O=C(Nc1ccc2c(c1)OCO2)C1Cc2ccccc2CN1S(=O)(=O)c1cccs1 (configuration not stated) | inconclusive: 30.1 µM [inhibitor, single point] | –
CCCc1nc(-c2cc3ccc(C)cc3[nH]c2=O)no1 | inconclusive: 30.1 µM [inhibitor, partial curve, poor fit] | –
COc1ccc(NC(=O)Cn2nc(C(=O)O)c3ccccc3c2=O)cc1OC | inconclusive: 37.9 µM [inhibitor, partial curve, poor fit] | –
COc1ccc(-c2nnc3ccc(SCc4ccccc4)nn23)cc1 | – | inactive: 5.99%
Cc1ccc(-c2nc(N3CCN(c4ccccc4Cl)CC3)c3ccccc3n2)cc1 | – | inactive: -1.1%
N#Cc1ccc(NC(=O)Nc2cccc(C#N)c2)cc1 | inconclusive: 30.1 µM [inhibitor, partial curve, poor fit] | –
Clc1ccc(-c2cc(COc3ccccc3)no2)cc1Cl | inconclusive: 23.9 µM [inhibitor, single point] | –
COc1ccc(C)cc1Nc1nc(-c2cccc(Cl)c2)c2c(n1)-c1ccccc1OC2 | inconclusive: 10.7 µM [inhibitor, partial curve, poor fit] | –
COc1ccc(/C=C(/NC(=O)c2ccccc2)C(=O)N/N=C/c2ccc3c(c2)OCO3)cc1OC | inconclusive: 16.9 µM [inhibitor, partial curve] | –
CCOc1ccc(-c2nc(C#N)c(NCC3CCCO3)o2)cc1 (configuration not stated) | inconclusive: 21.3 µM [inhibitor, single point] | –
O=C(COC(=O)c1ccc(-n2cnnn2)cc1)Nc1cc(Cl)ccc1F | – | inactive: 5.02%
COc1ccc(C(=O)NC2=Nc3ccccc3N=C(C)C2c2ccccc2)cc1 (configuration not stated) | inconclusive: 37.9 µM [inhibitor, single point] | –
COC(=O)C1CCN(C(=O)c2cc(-c3ccc(Cl)s3)nc3ccccc23)CC1 | inconclusive: 12.6 µM [inhibitor, partial curve, poor fit] | –
CC(=O)Oc1ccc(/C=N/NC(=O)c2ccc(N(C)S(=O)(=O)c3ccccc3)cc2)cc1 | active: 15.1 µM | –
CC(=O)Nc1cccc(NC(=O)CSc2ccc(C(F)(F)F)cc2[N+](=O)[O-])c1 | inconclusive: 21.3 µM [inhibitor, partial curve] | –
CCOc1ccc(C2Sc3ccccc3NC3=C2C(=O)OC3)cc1 (configuration not stated) | inconclusive: 21.3 µM [inhibitor, single point] | –
On1c(-c2ccc(Cl)cc2)nc2ccccc21 | active: 19 µM | –
CCOCC(=O)Nc1ccc(-c2cn3cccnc3n2)cc1 | inconclusive: 37.9 µM [inhibitor, partial curve, poor fit] | –
Cc1nnc(SCC(=O)Nc2ccc(Br)cc2)[nH]c1=O | inconclusive: 21.3 µM [inhibitor, partial curve] | –

SMILES | Potency | activity change, negative = inhibition
CCOC(=O)CC(=O)CSc1nc(N)c(C#N)c(-c2ccc(F)cc2)c1C#N | – | inactive: -0.681%
COc1cc(/C=N/NC(=O)COc2ccc([N+](=O)[O-])cc2)ccc1OCC(=O)N1CCOCC1 | inconclusive: 37.9 µM [inhibitor, partial curve, poor fit] | –
Cc1cccc(NC(=O)C2COc3ccccc3O2)c1 (configuration not stated) | inconclusive: 26.9 µM [inhibitor, partial curve] | –
COc1ccc(C2/C(=C(/O)c3ccc(C)cc3)C(=O)C(=O)N2CCCN2CCOCC2)cc1 (configuration not stated) | inconclusive: 37.9 µM [inhibitor, partial curve, poor fit] | –
CC1CCC(NC(=O)c2nn(C)c3c2CSc2ccccc2-3)CC1 (configuration not stated) | inconclusive: 26.9 µM [inhibitor, single point] | –
O=[N+]([O-])c1ccc(Oc2ccc(-c3cnc4ccccc4n3)cc2[N+](=O)[O-])cc1 | inconclusive: 13.5 µM [inhibitor, partial curve, poor fit] | –
Nc1cc(-c2ccccc2)nn1Cc1ccc(Cl)cc1 | inconclusive: 23.9 µM [inhibitor, single point] | –
COc1ccc(C2=NN(S(C)(=O)=O)C(c3cccs3)C2)cc1 (configuration not stated) | active: 10.7 µM | –
COc1ccc(C2CC(c3cccs3)=Nc3ccccc3S2)cc1 (configuration not stated) | inconclusive: 33.8 µM [inhibitor, single point] | –
CCCc1c(OCCCCc2nn[nH]n2)ccc(C(C)=O)c1O | inconclusive: 26.9 µM [inhibitor, single point] | –
O=C(N/N=C\c1ccc(S(=O)(=O)O)o1)c1ccc2c(c1)OCO2 | inconclusive: 16.9 µM [inhibitor, partial curve] | –
C=CCc1cccc2cc(C(=O)Nc3ccc(CC(=O)O)cc3)c(=O)oc12 | active: 8.49 µM | –
Cc1c(C(=O)Nc2cccc(S(=O)(=O)N3CCCC3)c2)oc2ccccc12 | inconclusive: 9.53 µM [inhibitor, partial curve] | –
CC(C)Oc1ccc(C(=O)Nc2ncn[nH]2)cc1 | inconclusive: 16.9 µM [inhibitor, partial curve] | –
Cc1occc1C(=O)Nc1sc2c(c1C(N)=O)CCCCC2 | active: 2.69 µM | –
Cc1ccc(OCC(=O)Nc2ccc(-c3nc4ncccc4o3)cc2)cc1 | – | inactive: -2.22% [at 2.3 µM]
Cc1noc(C)c1CSCC(=O)NC1=NCCS1 | – | inactive: -0.887%
NC(=O)Cc1ccc(C(=O)c2ccc(Cl)cc2)s1 | inconclusive: 33.8 µM [inhibitor, partial curve, poor fit] | –
O=C(Nc1ccc(Br)cn1)c1ccc([N+](=O)[O-])o1 | inconclusive: 37.9 µM [inhibitor, partial curve, poor fit] | –
CCOC(=O)C1CCCN(c2ccc(NC(=O)c3snc4c(=O)[nH]cnc34)cc2)C1 (configuration not stated) | inconclusive: 7.57 µM [inhibitor, partial curve] | –
O=C(Nc1cccc2cccnc12)c1cccc(N2C(=O)CCC2=O)c1 | active: 13.5 µM | –
